B1: 124 (protein)
chain: HGEGTFTSDKSKLLEKRLAHLFIEWLIAGGHSKGKPPPKGGGGGGGSGGGGSGGGGSA[… human IgG4 Fc with changes …]GGGSGSAHPIPDSSPLLQFGGQVRQRYLYTDDACQTEAHLEIREDGTVGGAADQSPESLLQLKALKPGVIQILGVKTSRFLCQRPDGALYGSLHFDPEACSFRELLLEDGYNVYQSEAHGLPLHLPGCKSPHRDPAPRGPARFLPLPGLPPAPPEPPGILAPQPPDVGSSDPLSMVGSQGRSPSYAS
modifications: Fusion Protein
B2: 152 (protein)
chain: HGEGTFTSDKSQLLEKRLAHLFIEWLLAGGHSSIRPPPKGGGGGGGSGGGGSGGGGSA[… human IgG4 Fc with changes …]GGGSGSAHPIPDSSPLLQFGGQVRQRYLYTDDACQTEAHLEIREDGTVGGAADQSPESLLQLKALKPGVIQILGVKTSRFLCQRPDGALYGSLHFDPEACSFRELLLEDGYNVYQSEAHGLPLHLPGCKSPHRDPAPRGPARFLPLPGLPPAPPEPPGILAPQPPDVGSSDPLSMVGSQGRSPSYAS
modifications: Fusion Protein
B3: 132 (protein)
chain: HGEGTFTSDKSQLLEKRLAHLFIEWLLAGGHSSGKLSPKGGGGGGGSGGGGSGGGGSA[… human IgG4 Fc with changes …]GGGSGSAHPIPDSSPLLQFGGQVRQRYLYTDDACQTEAHLEIREDGTVGGAADQSPESLLQLKALKPGVIQILGVKTSRFLCQRPDGALYGSLHFDPEACSFRELLLEDGYNVYQSEAHGLPLHLPGCKSPHRDPAPRGPARFLPLPGLPPAPPEPPGILAPQPPDVGSSDPLSMVGSQGRSPSYAS
modifications: Fusion Protein
B4: 162 (protein)
chain: HGEGTFTSDKSKQLAKRLAHLFIEWLIAGGHSSGKPPPKGGGGGGGSGGGGSGGGGSA[… human IgG4 Fc with changes …]GGGSGSAHPIPDSSPLLQFGGQVRQRYLYTDDACQTEAHLEIREDGTVGGAADQSPESLLQLKALKPGVIQILGVKTSRFLCQRPDGALYGSLHFDPEACSFRELLLEDGYNVYQSEAHGLPLHLPGCKSPHRDPAPRGPARFLPLPGLPPAPPEPPGILAPQPPDVGSSDPLSMVGSQGRSPSYAS
modifications: Fusion Protein
B5: 128 (protein)
chain: HGEGTFTSDKSQLLEKRLAHLFIEWLIKGGHSKGKYPPKGGGGGGGSGGGGSGGGGSA[… human IgG4 Fc with changes …]GGGSGSAHPIPDSSPLLQFGGQVRQRYLYTDDACQTEAHLEIREDGTVGGAADQSPESLLQLKALKPGVIQILGVKTSRFLCQRPDGALYGSLHFDPEACSFRELLLEDGYNVYQSEAHGLPLHLPGCKSPHRDPAPRGPARFLPLPGLPPAPPEPPGILAPQPPDVGSSDPLSMVGSQGRSPSYAS
modifications: Fusion Protein
B6: 161 (protein)
chain: HGEGTFTSDKSKQLAKRLVRLFIEWLIAGGHSSGKPPPKGGGGGGGSGGGGSGGGGSA[… human IgG4 Fc with changes …]GGGSGSAHPIPDSSPLLQFGGQVRQRYLYTDDACQTEAHLEIREDGTVGGAADQSPESLLQLKALKPGVIQILGVKTSRFLCQRPDGALYGSLHFDPEACSFRELLLEDGYNVYQSEAHGLPLHLPGCKSPHRDPAPRGPARFLPLPGLPPAPPEPPGILAPQPPDVGSSDPLSMVGSQGRSPSYAS
modifications: Fusion Protein
B7: 130 (protein)
chain: HGEGTFTSDKSQLLEKELAHLFIEWLLAGGHSKGKPPPKGGGGGGGSGGGGSGGGGSA[… human IgG4 Fc with changes …]GGGSGSAHPIPDSSPLLQFGGQVRQRYLYTDDACQTEAHLEIREDGTVGGAADQSPESLLQLKALKPGVIQILGVKTSRFLCQRPDGALYGSLHFDPEACSFRELLLEDGYNVYQSEAHGLPLHLPGCKSPHRDPAPRGPARFLPLPGLPPAPPEPPGILAPQPPDVGSSDPLSMVGSQGRSPSYAS
modifications: Fusion Protein
B8: 144 (protein)
chain: HGEGTFTSDKSQLLEKRLAHLFIEWLIKGGPSSIKPPPKGGGGGGGSGGGGSGGGGSA[… human IgG4 Fc with changes …]GGGSGSAHPIPDSSPLLQFGGQVRQRYLYTDDACQTEAHLEIREDGTVGGAADQSPESLLQLKALKPGVIQILGVKTSRFLCQRPDGALYGSLHFDPEACSFRELLLEDGYNVYQSEAHGLPLHLPGCKSPHRDPAPRGPARFLPLPGLPPAPPEPPGILAPQPPDVGSSDPLSMVGSQGRSPSYAS
modifications: Fusion Protein
B9: 156 (protein)
chain: HGEGTFTSDKSQLLEKRLAHLFIEWLIAGGHSSGRLSPKGGGGGGGSGGGGSGGGGSA[… human IgG4 Fc with changes …]GGGSGSAHPIPDSSPLLQFGGQVRQRYLYTDDACQTEAHLEIREDGTVGGAADQSPESLLQLKALKPGVIQILGVKTSRFLCQRPDGALYGSLHFDPEACSFRELLLEDGYNVYQSEAHGLPLHLPGCKSPHRDPAPRGPARFLPLPGLPPAPPEPPGILAPQPPDVGSSDPLSMVGSQGRSPSYAS
modifications: Fusion Protein
B10: 157 (protein)
chain: HGEGTFTSDKSQLLEKRLAHLFIEWLIAGGPSKGRPPPKGGGGGGGSGGGGSGGGGSA[… human IgG4 Fc with changes …]GGGSGSAHPIPDSSPLLQFGGQVRQRYLYTDDACQTEAHLEIREDGTVGGAADQSPESLLQLKALKPGVIQILGVKTSRFLCQRPDGALYGSLHFDPEACSFRELLLEDGYNVYQSEAHGLPLHLPGCKSPHRDPAPRGPARFLPLPGLPPAPPEPPGILAPQPPDVGSSDPLSMVGSQGRSPSYAS
modifications: Fusion Protein
B11: 148 (protein)
chain: HGEGTFTSDKSQLLEKRLAHLFIEWLIAGGPSSGKYSPKGGGGGGGSGGGGSGGGGSA[… human IgG4 Fc with changes …]GGGSGSAHPIPDSSPLLQFGGQVRQRYLYTDDACQTEAHLEIREDGTVGGAADQSPESLLQLKALKPGVIQILGVKTSRFLCQRPDGALYGSLHFDPEACSFRELLLEDGYNVYQSEAHGLPLHLPGCKSPHRDPAPRGPARFLPLPGLPPAPPEPPGILAPQPPDVGSSDPLSMVGSQGRSPSYAS
modifications: Fusion Protein
B12: 143 (protein)
chain: HGEGTFTSDKSQLLEKRLAHLFIEWLLKGGHSKGKPPPKGGGGGGGSGGGGSGGGGSA[… human IgG4 Fc with changes …]GGGSGSAHPIPDSSPLLQFGGQVRQRYLYTDDACQTEAHLEIREDGTVGGAADQSPESLLQLKALKPGVIQILGVKTSRFLCQRPDGALYGSLHFDPEACSFRELLLEDGYNVYQSEAHGLPLHLPGCKSPHRDPAPRGPARFLPLPGLPPAPPEPPGILAPQPPDVGSSDPLSMVGSQGRSPSYAS
modifications: Fusion Protein
B13: 135 (protein)
chain: HGEGTFTSDKSQLLEERLVHLFIEWLIAGGHSSGKLPPKGGGGGGGSGGGGSGGGGSA[… human IgG4 Fc with changes …]GGGSGSAHPIPDSSPLLQFGGQVRQRYLYTDDACQTEAHLEIREDGTVGGAADQSPESLLQLKALKPGVIQILGVKTSRFLCQRPDGALYGSLHFDPEACSFRELLLEDGYNVYQSEAHGLPLHLPGCKSPHRDPAPRGPARFLPLPGLPPAPPEPPGILAPQPPDVGSSDPLSMVGSQGRSPSYAS
modifications: Fusion Protein
B14: 139 (protein)
chain: HGEGTFTSDKSQLLEKRAAHLFIEWLIAGGHSSGKLSPKGGGGGGGSGGGGSGGGGSA[… human IgG4 Fc with changes …]GGGSGSAHPIPDSSPLLQFGGQVRQRYLYTDDACQTEAHLEIREDGTVGGAADQSPESLLQLKALKPGVIQILGVKTSRFLCQRPDGALYGSLHFDPEACSFRELLLEDGYNVYQSEAHGLPLHLPGCKSPHRDPAPRGPARFLPLPGLPPAPPEPPGILAPQPPDVGSSDPLSMVGSQGRSPSYAS
modifications: Fusion Protein
B15: 151 (protein)
chain: HGEGTFTSDKSQLLEKRLAHLFIEWLIAGGHSSGRYSPKGGGGGGGSGGGGSGGGGSA[… human IgG4 Fc with changes …]GGGSGSAHPIPDSSPLLQFGGQVRQRYLYTDDACQTEAHLEIREDGTVGGAADQSPESLLQLKALKPGVIQILGVKTSRFLCQRPDGALYGSLHFDPEACSFRELLLEDGYNVYQSEAHGLPLHLPGCKSPHRDPAPRGPARFLPLPGLPPAPPEPPGILAPQPPDVGSSDPLSMVGSQGRSPSYAS
modifications: Fusion Protein

The values below come from patent publication US20230250147A1, “GLP-1R AGONISTIC PEPTIDES WITH REDUCED ACTIVITY” (SANOFI, priority 2020, published 2023).

The assay deals with T1, Human GLP-1R (Homo sapiens, UniProt P43220).
T1 construct: expressed in transfected cells; host or cells: HEK-293
T1 sequence (P43220 24-463): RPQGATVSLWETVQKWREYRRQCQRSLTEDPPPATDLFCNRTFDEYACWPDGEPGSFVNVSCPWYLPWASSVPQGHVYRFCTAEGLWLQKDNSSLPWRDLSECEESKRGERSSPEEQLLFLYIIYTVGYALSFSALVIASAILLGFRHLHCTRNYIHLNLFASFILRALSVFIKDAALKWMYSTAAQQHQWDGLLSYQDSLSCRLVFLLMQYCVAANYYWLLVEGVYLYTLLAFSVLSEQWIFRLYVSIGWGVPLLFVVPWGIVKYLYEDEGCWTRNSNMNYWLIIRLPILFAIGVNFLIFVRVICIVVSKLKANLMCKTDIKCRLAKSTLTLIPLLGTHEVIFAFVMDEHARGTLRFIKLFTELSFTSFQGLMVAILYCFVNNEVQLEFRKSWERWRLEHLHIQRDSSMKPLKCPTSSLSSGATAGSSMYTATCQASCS
Briefly: HTRF cAMP assay in HEK-293 cells, human GLP-1R. In kind it is cell-based. Here is the method: Recombinant HEK-293 cells were grown in T175 culture flasks placed at 37° C. to near confluence in medium (DMEM with 10% FBS) and collected in 2 mL vials in cell culture medium containing 10% DMSO in concentrations of 1-5×10^7 cells/mL. Each vial contained 1.8 mL cell suspension. The vials were slowly frozen to −80° C. in an isopropanol chamber, and then transferred to liquid nitrogen for long term storage.
Prior to their use, frozen cells were thawed quickly at 37° C., washed with 20 mL cell buffer (1×HBSS; 20 mM HEPES, 0.1% BSA) and centrifuged for 5 minutes at 900 rpm. Cells were resuspended in assay buffer (cell buffer plus 2 mM IBMX) and adjusted to a cell density of 1×10^6 cells/mL. For measurement, 5 μL cell suspension (final 5×10^3 cells/well) and 5 μL of test compound were added to a well of a 384-well plate, followed by incubation for 30 minutes at room temperature. […] The cAMP content of cells was determined using a kit from Cisbio Corp. (cat. no. 62AM4PEC) based on Homogenous Time Resolved Fluorescence (HTRF).
(In general: Time-resolved FRET reads energy transfer from a long-lived donor to a nearby acceptor.)
By EC50 is commonly meant the concentration needed to bring the measured effect to its halfway point. The molecule B1 gave an EC50 of 10.6 pM.
Next, B2: 9.43 pM.
Next, B3: 8.48 pM; B4: 270 pM.
Next, B5: 9.83 pM.
Molecule B6 gave an EC50 of 252 pM.
Next, B7: 7.38 pM.
Molecule B8 came in with an EC50 of 16.2 pM.
Next, B9: 9.22 pM.
Next, B10: 12.1 pM; B11: 8.48 pM; B12: 14.2 pM.
B13 displayed an EC50 of 11.5 pM.
Next, B14: 7.35 pM.
Turning to B15, it took 8.66 pM to reach a half-maximal effect (EC50).
